This list was built around the results that the source calls inconclusive (neither active nor inactive); the mix of calls is not that of the screen. For some assays here: A potency beside an inconclusive call is a rough fit, not a confirmed value. For some assays here: “Side channel” marks fits to a control or component signal instead of the main read-out. Calls of active or inactive are those of the source. Unless noted, the call rests on the fitted dose curve; in most records, active means well fitted curve in the direction sought with a large enough effect; inconclusive means small, poorly fitted or top-dose-only effect, or another doubt; inactive means no such curve, though single readings can be large; an effect the other way counts as inactive or inconclusive.
Key:
[1] = Cell Viability - Jurkat (AID 426;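 active means dose-dependent loss of cell ATP signal giving a full or clear fitted curve, ranked by lower potency value; inconclusive means weak partial curve or response only at the top dose; inactive means no loss of viability signal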; further: potency means the concentration at half of the fitted maximal effect); settings: qHTS
Method in brief: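 Cells of the human T-cell leukemia line Jurkat (E6-1) are seeded at 5000 per well, treated with compound across a concentration range for 40 hours at 37 °C, then lysed with CellTiter-Glo; luminescence reports ATP.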

[2] = Cell Viability - SK-N-SH (AID 435; calls by dose curve;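 further: potency means the concentration at half of the fitted maximal effect; compound exposure lasted 40 h at 37 °C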); settings: SK-N-SH neuroblastoma cell viability qHTS
Method in brief: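 Human neuroblastoma line, 40 h exposure at 37 °C, ATP quantified via luciferase luminescence; DMSO and 100 uM tamoxifen define 0 and 100% inhibition for AC50 fitting.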

[3] = Cell Viability - N2a (AID 540); settings: N2a mouse neuroblastoma cell viability; activity change, negative = cytotoxicity: at 92.2 µM (top of the series);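 further: cells exposed to compound for 40 h at 37 °C; plate controls were DMSO alone for no effect and tamoxifen control for full effect; nearly all actives have a fitted effect of over 45% in size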
Method in brief: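 Cytotoxicity was scored as loss of cellular ATP in N2a cells, a mouse neuroblastoma line. Compounds are applied in a qHTS concentration series for 40 hr at 37 °C.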

[4] = Cell Viability - NIH 3T3 (AID 541); settings: NIH 3T3 cell viability, qHTS; activity change, negative = cytotoxicity: at 92.2 µM (top of the series);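 further: plate controls were DMSO alone for no effect and tamoxifen positive control for full effect; nearly all actives have a fitted effect of over 25% in size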
Method in brief: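 Cells seeded at 1000/well, rested 5 hr at 37 °C, then dosed and incubated 40 hr at 37 °C. CellTiter-Glo added, 20 min room temperature, luminescence read. AC50 by Hill fit.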

[5] = Cell Viability - H-4-II-E (AID 543); further: potency means the concentration at half of the fitted maximal effect; nearly all actives have a fitted effect of over 35% in size
Method in brief: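 Cells seeded at 1500 per well and rested 5 hr; compounds added; 40 hr incubation at 37 °C; CellTiter-Glo added, 20 min at room temperature; luminescence read. Hill-equation fits gave AC50.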

[6] = Cell Viability - Renal Proximal Tubule (AID 545); settings: renal proximal tubule cells viability, primary cells of rat origin; activity change, negative = cytotoxicity: at 91.7 µM (top of the series);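 further: 0% = DMSO only and -100% = 100 µM tamoxifen; nearly all actives have a fitted effect of over 40% in size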
Method in brief: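 In this qHTS format, normal rat kidney-derived proximal tubule cells in complete culture medium receive compound titrations, then sit 40 hours at 37 °C before luciferase-based ATP quantitation; potency is reported as AC50 from concentration-response curves.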

[7] = MultiTox-Fluor Cytotoxicity Assay - LYMP1-003 - Dead Cells (AID 961); further: potency means the concentration at half of the fitted maximal effect; nearly all actives have a fitted effect of over 70% in size
Method in brief: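 LYMP1-003 human lymphoblastoid cells (2500/well) exposed to compound 16 h at 37 C in complete medium; dead-cell protease read with bis-AAF-R110 fluorescence (Ex/Em 485/520) after 60 min at room temperature. Normalized to DMSO and 15 uM tetraoctylammonium bromide; AC50 from Hill fit.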

[8] = Cell Viability - LYMP1-003 - Assay at 40 hr (AID 964); further: potency means the concentration at half of the fitted maximal effect; nearly all actives have a fitted effect of over 60% in size
Method in brief: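 Luminescent ATP signal (CellTiter-Glo) served as the viability read-out after 40 hr compound treatment of human lymphoblastoid LYMP1-003 cells at 37 C. Decreases in ATP were fitted with the Hill equation to give AC50.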

[9] = Cell Viability - LYMP2-004 (AID 966); further: potency means the concentration at half of the fitted maximal effect; nearly all actives have a fitted effect of over 65% in size
Method in brief: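 qHTS cytotoxicity: human lymphoblastoid line, 24 hr compound treatment, 37 C, complete medium. Viability read as cellular ATP via luciferase luminescence; tetraoctylammonium bromide served as positive control.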

[10] = Cell Viability - LYMP2-005 (AID 967); further: potency means the concentration at half of the fitted maximal effect
Method in brief: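 Luciferase-based ATP quantitation served as the viability measure in human lymphoblastoid LYMP2-005 cells exposed to test compounds for 24 h at 37 C in complete culture medium. Potency (AC50) was obtained by fitting concentration-response curves with the Hill equation.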

[11] = Cell Viability - LYMP2-011 (AID 969); further: potency means the concentration at half of the fitted maximal effect; nearly all actives have a fitted effect of over 60% in size
Method in brief: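 In this qHTS cytotoxicity format, compounds are tested across concentrations on human lymphoblastoid cells in complete medium for 24 hours at 37 C. Viability is taken as cellular ATP measured by luciferase luminescence.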

[12] = Cell Viability - LYMP2-019 (AID 973); further: potency means the concentration at half of the fitted maximal effect; nearly all actives have a fitted effect of over 55% in size
Method in brief: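 Cytotoxicity is scored as a concentration-dependent drop in cellular ATP after cells (2500/well) receive compound for 24 hr at 37 C. Tetraoctylammonium bromide serves as positive control.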

[13] = Cell Viability - LYMP2-025 (AID 976); settings: LYMP2-025 lymphoblastoid cell viability; activity change, negative = cytotoxicity: at 92.2 µM (top of the series); further: potency means the concentration at half of the fitted maximal effect
Method in brief: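 Acute cytotoxicity is scored as a concentration-dependent fall in intracellular ATP, measured by luciferase luminescence, in human lymphoblastoid LYMP2-025 cells exposed to compound for 24 hours at 37 C. AC50 values come from standard Hill fits.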

[14] = Cell Viability - LYMP2-002 (AID 977); settings: LYMP2-002 lymphoblastoid cell viability, qHTS; activity change, negative = cytotoxic: at 92.2 µM (top of the series);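 further: potency means the concentration at half of the fitted maximal effect; compound exposure lasted 24 h at 37 °C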
Method in brief: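 Human lymphoblastoid cells (2500/well) in complete medium were preincubated 5 hr at 37 C, then exposed to compounds for 24 hr at 37 C. Intracellular ATP was read by CellTiter-Glo luminescence; AC50 came from Hill-equation concentration-response fits.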

[15] = Cell Viability - LYMP2-018 (AID 985);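 further: potency means the concentration at half of the fitted maximal effect; compound exposure lasted 24 hr at 37 °C; nearly all actives have a fitted effect of over 50% in size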
Method in brief: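 Seed 2500 lymphoblastoid cells per well, incubate 5 hr at 37 C, add compound and incubate 24 hr at 37 C, add CellTiter-Glo, wait 30 min at room temperature, then read luminescence.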

[16] = Cell Viability - LYMP2-020 (AID 986); settings: activity change, negative = viability loss: at 92.2 µM (top of the series); further: potency means the concentration at half of the fitted maximal effect; nearly all actives have a fitted effect of over 55% in size
Method in brief: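 Seed 2500 cells per well and incubate 5 hr at 37 C. Add compounds at a concentration series and incubate 24 hr at 37 C. Add CellTiter-Glo, wait 30 min at RT, read luminescence, and fit a Hill curve for AC50.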

[17] = Cell Viability - LYMP2-022 (AID 987); further: potency means the concentration at half of the fitted maximal effect; nearly all actives have a fitted effect of over 55% in size
Method in brief: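 Cells were seeded at 2500 per well, rested 5 hr at 37 C, and treated with titrated compounds for 24 hr at 37 C. Cellular ATP was then quantified by luciferase luminescence, and AC50 values were derived from Hill-modelled concentration-response curves.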

[18] = Cell Viability - LYMP2-024 (AID 988); settings: LYMP2-024 lymphoblastoid cell viability; activity change, negative = cytotoxicity: at 92.2 µM (top of the series); further: potency means the concentration at half of the fitted maximal effect; nearly all actives have a fitted effect of over 60% in size
Method in brief: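 qHTS cytotoxicity, human lymphoblastoid line, complete medium; 24 h cpd treatment, 37 C; CellTiter-Glo ATP luminescence readout; tetraoctylammonium bromide positive control; AC50 via Hill fit.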

[19] = target: Androgen receptor (Homo sapiens) (UniProt P10275); assay: qHTS assay for small molecule agonists of androgen receptor signaling (AID 588515; active means well fitted curve in the direction sought with a large enough effect in the signal ratio, with a control signal flat; inconclusive means small, poorly fitted or top-dose-only effect, or effect the other way, or a change in a side signal; inactive means no such curve, though single readings can be large or run the other way; the % refers to the signal ratio; further: on the % scale 0 is the no-effect control and ±100 the full control effect); settings: AR-UAS-bla HEK293, beta-lactamase ratio, agonist 16 h; activation: stronger effect = higher value
Sequence of UniProt P10275 (P10275 whole entry, looked up): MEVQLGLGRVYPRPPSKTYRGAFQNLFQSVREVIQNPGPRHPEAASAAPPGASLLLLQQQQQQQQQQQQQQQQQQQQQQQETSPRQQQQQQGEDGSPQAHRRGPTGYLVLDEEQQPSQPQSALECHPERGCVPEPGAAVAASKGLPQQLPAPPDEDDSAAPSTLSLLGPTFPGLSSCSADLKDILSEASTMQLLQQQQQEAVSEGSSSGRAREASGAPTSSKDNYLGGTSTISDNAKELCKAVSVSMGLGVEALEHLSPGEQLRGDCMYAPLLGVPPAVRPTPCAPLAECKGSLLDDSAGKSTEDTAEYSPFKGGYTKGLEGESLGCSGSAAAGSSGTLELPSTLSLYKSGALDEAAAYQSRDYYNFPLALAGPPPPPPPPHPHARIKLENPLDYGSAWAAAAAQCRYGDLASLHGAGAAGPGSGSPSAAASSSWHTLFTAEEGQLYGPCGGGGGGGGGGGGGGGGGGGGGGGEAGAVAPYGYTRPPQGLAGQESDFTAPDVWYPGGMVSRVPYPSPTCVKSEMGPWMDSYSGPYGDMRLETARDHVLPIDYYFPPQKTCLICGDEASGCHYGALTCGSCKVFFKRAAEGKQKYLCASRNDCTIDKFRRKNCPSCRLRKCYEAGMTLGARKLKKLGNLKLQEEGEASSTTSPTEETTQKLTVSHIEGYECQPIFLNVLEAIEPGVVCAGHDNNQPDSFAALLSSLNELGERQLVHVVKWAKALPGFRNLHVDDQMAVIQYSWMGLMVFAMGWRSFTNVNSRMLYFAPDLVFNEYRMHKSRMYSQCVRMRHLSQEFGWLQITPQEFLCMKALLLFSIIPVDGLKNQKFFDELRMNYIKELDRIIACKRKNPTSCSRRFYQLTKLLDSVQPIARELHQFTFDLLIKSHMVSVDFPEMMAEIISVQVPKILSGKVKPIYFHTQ
Method in brief: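 Stimulation of an AR-responsive β-lactamase reporter in GripTite HEK293 cells was measured after 16 h compound exposure at 37 °C, via CCF4 fluorescence after 2 h RT. EC50 from Hill fits, normalized to R1881 at 30 nM.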

[20] = target: Glucocorticoid receptor (Homo sapiens) (UniProt P04150); assay: qHTS assay for small molecule antagonists of glucocorticoid receptor signaling (AID 588533; active means well fitted inhibition curve with a large enough effect in the signal ratio, with a control signal flat, not every such curve was filed as active; inconclusive means small, poorly fitted or top-dose-only effect, or effect the other way, or a change in a side signal; the % refers to the signal ratio;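 further: cells stimulated with 2 nM dexamethasone as agonist; on the % scale 0 is the no-effect control and ±100 the full control effect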); settings: HeLa MMTV-bla, GRE beta-lactamase ratio, antagonist mode, 18 h; activity change, negative = inhibition: at 76.8 µM (top of the series)
[21] = target: Peroxisome proliferator-activated receptor delta (Homo sapiens) (UniProt Q03181); assay: qHTS assay for small molecule antagonists of peroxisome proliferator-activated receptor delta signaling (AID 588535; active means well fitted inhibition curve with a large enough effect in the signal ratio, with a control signal flat, not every such curve was filed as active; inconclusive means small, poorly fitted or top-dose-only effect, or effect the other way, or a change in a side signal; inactive means no such curve, though single readings can be large or run the other way; the % refers to the signal ratio); settings: HEK293T PPARd-UAS-bla, beta-lactamase FRET ratio, 18 h; activity change, negative = inhibition: at 76.7 µM (top of the series)
Sequence of UniProt Q03181 (Q03181 whole entry, looked up): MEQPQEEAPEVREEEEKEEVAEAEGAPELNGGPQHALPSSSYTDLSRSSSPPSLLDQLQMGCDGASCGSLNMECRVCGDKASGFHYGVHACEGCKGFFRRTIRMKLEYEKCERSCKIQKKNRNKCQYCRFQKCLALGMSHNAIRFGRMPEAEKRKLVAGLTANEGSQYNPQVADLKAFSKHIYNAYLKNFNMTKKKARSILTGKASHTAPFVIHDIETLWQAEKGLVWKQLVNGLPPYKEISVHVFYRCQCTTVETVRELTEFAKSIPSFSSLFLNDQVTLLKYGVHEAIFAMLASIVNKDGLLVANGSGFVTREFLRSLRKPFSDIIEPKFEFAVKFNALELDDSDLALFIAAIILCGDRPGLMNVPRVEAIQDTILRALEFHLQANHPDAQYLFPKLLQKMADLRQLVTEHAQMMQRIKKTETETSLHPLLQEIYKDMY
Method in brief: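 Titrations were run on PPAR-delta-UAS-bla HEK293T cells in charcoal/dextran-stripped serum, incubated 18 h at 37 C. CCF4 fluorescence (460/530 nm) after 2 h RT; Hill equation yields IC50 and maximal response.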

[22] = target: Peroxisome proliferator-activated receptor gamma (Homo sapiens) (UniProt P37231); assay: qHTS assay for small molecule agonists of peroxisome proliferator-activated receptor gamma signaling (AID 588536; active means well fitted curve in the direction sought with a large enough effect in the signal ratio, with a control signal flat, not every such curve was filed as active; inconclusive means small, poorly fitted or top-dose-only effect, or effect the other way, or a change in a side signal; inactive means no such curve, though single readings can be large or run the other way; the % refers to the signal ratio; further: potency means the concentration at half of the fitted maximal effect); settings: HEK293 PPARg-UAS-bla, beta-lactamase ratio, 16 h; activation: at 76.7 µM (top of the series), percent of rosiglitazone response, DMSO as zero
Method in brief: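 Cells were plated and held 6–6.5 h at 37 C, then compounds were added as a titration series. After a further 16 h, CCF4 dye was loaded for 2 h at room temperature and emission at 460/530 nm recorded.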

[23] = target: Peroxisome proliferator-activated receptor gamma (Homo sapiens) (UniProt P37231); assay: qHTS assay for small molecule antagonists of peroxisome proliferator-activated receptor gamma signaling (AID 588537; active means well fitted inhibition curve with a large enough effect in the signal ratio, with a control signal flat, not every such curve was filed as active; inconclusive means small, poorly fitted or top-dose-only effect, or effect the other way, or a change in a side signal; the % refers to the signal ratio;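 further: reporter cells co-stimulated with 50 nM rosiglitazone agonist during compound treatment; % of control where 0% means no effect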); settings: HEK293 PPARg-UAS-bla, beta-lactamase ratio, antagonist mode; activity, negative = inhibition: at 76.8 µM (top of the series)
Method in brief: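 Antagonist-mode β-lactamase reporter screen run as a titration series. HEK293 PPARγ-UAS-bla cells are stimulated with rosiglitazone (50 nM final) for 16 h, then CCF4 is read at 460/530 nm. Data are scaled between DMSO and rosiglitazone and fitted to the Hill equation.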

[24] = target: Vitamin D3 receptor (Homo sapiens) (UniProt P11473); assay: qHTS assay for small molecule antagonists of vitamin D receptor signaling (AID 588541; calls by dose curve; further: potency means the concentration at half of the fitted maximal effect); settings: HEK293T VDR-UAS-bla, beta-lactamase ratio, antagonist mode; activity change, negative = inhibition: at 76.7 µM (top of the series)
[25] = target: Thyroid hormone receptor beta (Homo sapiens) (UniProt P10828); assay: qHTS assay for small molecule agonists of thyroid hormone receptor beta signaling (AID 588545; calls by dose curve); settings: TR-UAS-bla GripTite HEK 293, beta-lactamase ratio, agonist mode, 18 h; activation: at 76.7 µM, percent of T3 response, DMSO as zero
Sequence of UniProt P10828 (P10828 whole entry, looked up): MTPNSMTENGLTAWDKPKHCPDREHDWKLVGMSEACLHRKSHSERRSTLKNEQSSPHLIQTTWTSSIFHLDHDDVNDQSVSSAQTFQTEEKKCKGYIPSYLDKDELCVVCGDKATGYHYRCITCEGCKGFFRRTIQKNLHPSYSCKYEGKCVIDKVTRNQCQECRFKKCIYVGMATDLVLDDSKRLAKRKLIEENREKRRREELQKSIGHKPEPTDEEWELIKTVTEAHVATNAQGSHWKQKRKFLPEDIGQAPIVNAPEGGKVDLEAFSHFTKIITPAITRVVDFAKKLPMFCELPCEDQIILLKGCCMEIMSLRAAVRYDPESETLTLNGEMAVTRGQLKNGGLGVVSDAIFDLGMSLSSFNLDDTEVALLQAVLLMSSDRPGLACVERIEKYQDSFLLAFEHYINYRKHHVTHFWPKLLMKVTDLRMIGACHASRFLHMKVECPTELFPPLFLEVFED
Method in brief: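 HEK 293 TR-UAS-bla; agonist mode; 18 hrs, 37 C; CCF4, ex 405/em 460 and 530 nm; norm. T3 10 nM = 100%, DMSO = 0%; Hill fit → EC50, efficacy.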

[26] = target: Retinoic acid receptor RXR-alpha (Homo sapiens) (UniProt P19793); assay: qHTS assay for small molecule antagonists of retinoid X receptor alpha signaling (AID 588546; active means well fitted inhibition curve with a large enough effect in the signal ratio, with a control signal flat, not every such curve was filed as active; inconclusive means small, poorly fitted or top-dose-only effect, or effect the other way, or a change in a side signal; inactive means no such curve, though single readings can be large or run the other way; the % refers to the signal ratio; further: potency means the concentration at half of the fitted maximal effect); settings: HEK293T RXRa-UAS-bla, beta-lactamase ratio, antagonist mode
Sequence of UniProt P19793 (P19793 whole entry, looked up): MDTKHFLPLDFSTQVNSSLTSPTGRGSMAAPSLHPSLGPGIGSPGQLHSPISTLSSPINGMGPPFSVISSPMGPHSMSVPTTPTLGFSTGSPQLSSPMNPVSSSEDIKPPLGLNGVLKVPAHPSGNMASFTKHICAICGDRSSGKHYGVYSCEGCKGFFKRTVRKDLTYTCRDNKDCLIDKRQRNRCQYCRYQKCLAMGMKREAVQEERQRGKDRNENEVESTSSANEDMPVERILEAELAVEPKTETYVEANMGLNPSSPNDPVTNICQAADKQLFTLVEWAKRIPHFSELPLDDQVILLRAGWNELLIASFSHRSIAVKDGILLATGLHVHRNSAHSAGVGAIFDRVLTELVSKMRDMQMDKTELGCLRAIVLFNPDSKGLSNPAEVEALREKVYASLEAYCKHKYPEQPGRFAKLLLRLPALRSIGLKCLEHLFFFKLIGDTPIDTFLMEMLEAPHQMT
Method in brief: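 Beta-lactamase reporter inhibition, read as CCF4 fluorescence ratio (ex 405, em 460/530 nm) after 2 h at RT. HEK293T UAS-bla cells, 2500/well, were stimulated with 9-cis-RA at 500 or 100 nM final alongside test compound for 18 h at 37 C.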

[27] = target: Thyroid hormone receptor beta (Homo sapiens) (UniProt P10828); assay: qHTS assay for small molecule antagonists of thyroid hormone receptor beta signaling (AID 588547; active means well fitted inhibition curve with a large enough effect in the signal ratio, with a control signal flat, not every such curve was filed as active; inconclusive means small, poorly fitted or top-dose-only effect, or effect the other way, or a change in a side signal; the % refers to the signal ratio; further: potency means the concentration at half of the fitted maximal effect); settings: TR-UAS-bla HEK293, beta-lactamase ratio, antagonist mode, 18 h
Method in brief: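 Inhibition of T3-driven (0.4nM final) beta-lactamase reporter activity was measured over 0.59 nM to 92 uM compound after 18 h at 37 C. The cells were GripTite HEK293 TR-UAS-bla in charcoal/dextran-stripped serum, with CCF4 ratio read-out and IC50 from Hill fits.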

[28] = qHTS assay to identify small molecules that stimulate interleukin-8 (IL-8) secretion (AID 651758; active means well fitted activation curve with a large enough effect in the signal ratio; inconclusive means small, poorly fitted or top-dose-only effect, or effect the other way, or a change in a side signal; the % refers to the signal ratio; further: 0% is about no effect); settings: HTRF ratio (665/615); activation: at 92.2 µM (top of the series)
Method in brief: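 Secreted IL-8 measured homogeneously by TR-FRET (two labelled anti-IL-8 antibodies, 1-3 h at room temperature) after a 16 h, 37 C compound treatment of THP-1 cells at 2000 cells/well.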

[29] = qHTS assay for small molecule antagonists of the retinoid-related orphan receptor gamma (ROR-gamma) signaling pathway - cell viability counter screen (AID 720652; active means well fitted curve in the direction sought with a large enough effect in the repeat runs; inconclusive means weak or mixed curves; inactive means no such curve, though single readings can be large; an effect the other way counts as inactive or inconclusive;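 further: potency means the concentration at half of the fitted maximal effect; compound exposure lasted 16 hr before ATP read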)
Method in brief: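 Steps: seed CHO cells bearing TET-inducible ROR and ROR response element-luciferase; rest 5 hr at 37 C; add compound, then doxycycline; incubate 16 hr; add CellTiter-Glo and read luminescence as ATP-based viability.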
Tags describe the fitted curve by direction and shape or compound fluorescence and quenching.

C/C=C/C=C/C=O
active: Potency [1] 29.4 µM | activity change, negative = cytotoxicity [4] -142% | Potency [9] 31.6 µM | Potency [10] 39.8 µM | Potency [11] 50.1 µM | Potency [12] 39.8 µM | Potency [15] 39.8 µM | Potency [16] 31.6 µM | Potency [17] 25.1 µM | Potency [18] 25.1 µM | Potency [29] 29.8 µM
inconclusive: Potency [2] 51.2 µM [single point] | activity change, negative = cytotoxicity [3] -53.9% | Potency [5] 50.1 µM [falling, partial curve] | activity change, negative = cytotoxicity [6] -56.1% | Potency [7] 63.1 µM [cytotoxic, single point] | Potency [8] 50.1 µM [cytotoxic, partial curve, poor fit] | Potency [13] 50.1 µM [cytotoxic, partial curve, poor fit] | Potency [14] 79.4 µM [cytotoxic, partial curve, poor fit] | activation [19] -17% | activity change, negative = inhibition [20] -4.16% | Potency [22] 28.2 µM [side channel, falling, partial curve, poor fit] | Potency [24] 50.1 µM [side channel, rising, single point] | Potency [26] 50.1 µM [activator, partial curve, poor fit] | Potency [27] 0.0708 µM [side channel, falling, full curve, poor fit] | activation [28] -1.33%
inactive: Potency [21] | Potency [23] | activation [25] -8.38%
